Laboratory results published in the supplement of paper PMC10126150.
Values marked as one replicate rest on one cluster of the flow cell; about a third of the high ones do not repeat.

Test system: ATP
Assay: switch fluorescence ratio, 500 uM ATP over buffer (Cy3 cluster intensity, sum of 5 cycles each) (fold (ratio)); higher = stronger signal-on switching upon ATP binding; sequences stand for … in TCGTCGGCAGCGTCAGATGTGTATAAGAGACAGTTTTTTTTTTTTTTTTTTTTTTTTT…TC
Settings: aptamer strand: ATP DNA aptamer (quencher-CACCTGGGGGAGTATTGCGGAGGAAGG + anchor), 100 nM annealed; ATP concentration: 500 uM; one replicate
Summary of the method: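 Exposure to 500 uM ATP lasted 15 min at 22 °C before imaging, and a selection-buffer image was taken beforehand, for Cy3-labelled switching-strand clusters on a modified Illumina MiSeq flow-cell annealed to 100 nM quencher-labelled ATP aptamer. Five buffer/ATP cycles were run with NaOH stripping and re-annealing between them. The fluorescence ratio per cluster is summed target-cycle over summed buffer-cycle Cy3 intensity, averaged per switch-domain sequence. Clusters outside 100-1000 RFU were excluded.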

| Sequence | switch fluorescence ratio |
| --- | --- |
| TGTTTTAACC | 0.994 |
| GTTTTAGCGA | 1.07 |
| CAGGGCGCAG | 1.01 |
| GTTAGTAAGT | 0.98 |
| GTTTGCGTGC | 0.976 |
| ACAATAGGAC | 1.11 |
| AGAGTATAAC | 1.02 |
| TGGTGGTGAG | 0.988 |
| AAGTAGCTTG | 0.963 |
| TCGACCCTCT | 1.02 |
| TGGTGGGTAG | 1 |
| ACTCTCGGTT | 1.03 |
| AGAAGGAGG | 0.966 |
| ACTTTCAGGG | 1.01 |
| ATGTGTCCGA | 1.02 |
| CGTTTACGG | 0.93 |
| GAGCGCCTTT | 1.03 |
| CTAGATGACT | 1.01 |
| CTACAATAGG | 1.05 |
| TACTCGCGAT | 3.23 |
| CAATAGGTCC | 1.04 |
| AAAGCTGTGG | 0.955 |
| AAACGGCATT | 1.08 |

| Sequence | switch fluorescence ratio |
| --- | --- |
| CAAATGTGTG | 1.03 |
| GTCTGGAGTG | 1.02 |
| TTCGCCCGGG | 0.949 |
| CATTTGTGAA | 0.946 |
| ATGGTTCGGT | 1.01 |
| AAGGTTGTCC | 1.02 |
| AAACAGGGGC | 1.11 |
| ATTTCGGGTA | 0.99 |
| ACCACATTGG | 0.987 |
| AGTAGAATTT | 0.973 |
| AAATCGAACG | 1.02 |
| GAGTCCTAGT | 0.985 |
| TATGTCGTAT | 0.993 |
| TCCAAATCAC | 1.02 |
| GACTACATAG | 1.01 |
| CATATTCGTT | 1.01 |
| TAATCCGAGA | 1.05 |
| GACCACGGTT | 1.05 |
| GGACGGGTAG | 1.04 |
| TGGCTTTCGG | 1.01 |
| AAGTGGCAGG | 1.01 |
| AAGAAGCCAC | 1.05 |
| CGGGGCCTTG | 0.988 |

| Sequence | switch fluorescence ratio |
| --- | --- |
| ATGAGACCTT | 1.22 |
| CTTAATACAG | 1.02 |
| ATATGGGTGA | 1.03 |
| ATTAAAACCG | 1.1 |
| TCGTGTCGAA | 1.03 |
| GCGTTGGTG | 0.963 |
| CCCCACAAGG | 1.65 |
| CTCGTAGCGC | 1.18 |
| ACATACTACC | 1.39 |
| GTCCGAAAAA | 0.983 |
| ATGGCGATAT | 1.03 |
| GGCTTATCGG | 0.985 |
| CTCCCTTCGT | 1.11 |
| ATGGCCGATT | 0.975 |
| AAAGGGGAA | 0.974 |
| TGATAGCGAT | 1.11 |
| CTTATCCCTG | 0.983 |
| TTGTCCACCT | 1.08 |
| TTTGGCAA | 1.1 |
| TATTTCTGAA | 0.973 |
| GGACTTATTA | 0.983 |
| CTACAGGAGT | 1.02 |
| GTGGTCATCT | 0.976 |

| Sequence | switch fluorescence ratio |
| --- | --- |
| TAACGCGTC | 0.995 |
| GATCACTTAG | 1.04 |
| TATGAGTTGT | 1.02 |
| AGCCTATGAT | 1.01 |
| AGGCAGGGTA | 0.965 |
| AGTTACTAGA | 1.03 |
| CAGAGACGA | 1 |
| ATCCGGTAGC | 1.43 |
| TGTACGTAGA | 1.05 |
| AGTAGTAGAC | 0.96 |
| TCGCATTCG | 1.12 |
| ATGCACATAC | 4.08 |
| ATGTTGTGG | 1.03 |
| GCAGTATTCT | 1.03 |
| CGCCACCTCT | 1.01 |
| ACCGAAGTTA | 1.08 |
| CACCAAAT | 1 |
| AAACTGGGCA | 1.01 |
| TCGTAATAGA | 0.994 |
| TTCAGTCAAG | 0.966 |
| TACAGCGGAC | 1.41 |
| TGGTGCCTGC | 0.955 |
| TCCGACTTC | 1.15 |

| Sequence | switch fluorescence ratio |
| --- | --- |
| ATGCTTATAG | 0.971 |
| GGAACGGACC | 1.12 |
| AGGATTCGCG | 1.08 |
| TATATAATTC | 1.03 |
| TAGGGCTC | 1 |
| TGGAGCAAGT | 4.06 |
| ACTAAAAGTT | 1.01 |
| AACGTACGAA | 1.48 |
| ATTGTAATAA | 0.971 |
| ATAGCCAGAA | 0.963 |
| AGTTCTGTAA | 0.985 |
| GGCCCTATGG | 1.06 |
| TACGTTTGTG | 0.947 |
| ATGCTCAATC | 1.07 |
| GTCAGTTAAA | 0.988 |
| GAGCGCGGGA | 1.01 |
| ATTCTAAGCT | 1.01 |
| ATCGTATTGA | 0.937 |
| TACCACACTG | 1.42 |
| CTTCACATAG | 1.04 |
| CTCTTACCT | 0.997 |
| AAGCGGATCA | 1.02 |
| ATAGAGGTCG | 1.07 |

| Sequence | switch fluorescence ratio |
| --- | --- |
| TAACAATGAC | 1.04 |
| ACTACCACTG | 1.36 |
| TCAATCTGCA | 1.02 |
| CAACAGATGC | 1.08 |
| ACAGTAAGGG | 1.01 |
| ATTTAAATGC | 1.04 |
| GGAATTCGTG | 0.986 |
| ATTCGTTGAG | 0.977 |
| GTATGGTTGG | 0.932 |
| GTTGTCTTGC | 0.966 |
| AATGATGATG | 0.963 |
| AGGTCTGTGA | 0.999 |
| ACAGCGGACA | 1.07 |
| TCGGGTATAA | 1.04 |
| TTTGGAATCT | 1 |
| AATCTCAAAG | 0.992 |
| TTGGGCTCT | 0.977 |
| CTATTGGGT | 0.963 |
| GGGTCAATTT | 1.02 |
| AAGTAACCAC | 1.07 |
| TGAATATCCT | 1.04 |
| AGGATCGGCC | 1.02 |
| TGACGGTATT | 1.09 |

| Sequence | switch fluorescence ratio |
| --- | --- |
| TGAGGCGGG | 1.02 |
| CAGTGTCTCG | 0.96 |
| ACACGGGAAT | 1.07 |
| CACGGTCGAA | 1.01 |
| GCTAGCAAGA | 0.985 |
| ATAATTGAGG | 1.03 |
| GTAGTCTGAG | 0.979 |
| AGACGGATTT | 1.07 |
| GTGGCGGGG | 1.03 |
| CGCAAGTGCA | 1.22 |
| CGCTCGGCGG | 0.987 |
| GCGGTAAAAC | 1.04 |
| AGTCAGGCGG | 1.03 |
| TATGGTTAAA | 1.04 |
| CCTCTCCGTG | 1.77 |
| AGGTCCTAGG | 0.985 |
| TTATCTAAAA | 0.991 |
| ATGTAAATTG | 1.01 |
| GTGTGCGTAA | 1.03 |
